PMC12136788
This is one part of the list.

T1: UNK ZnF1-3 (human, UniProt Q9C0B0 31-174)
T1 sequence: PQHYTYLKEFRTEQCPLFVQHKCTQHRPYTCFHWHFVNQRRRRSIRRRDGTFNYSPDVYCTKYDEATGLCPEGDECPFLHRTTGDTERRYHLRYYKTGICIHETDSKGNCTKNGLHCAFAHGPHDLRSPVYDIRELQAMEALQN

B1: 15936781_15936901_1503_3pUTR_ENSG00000183580_ENST00000504595|human|control|control (ssRNA)
RNA: GGGAGUUCUACAGUCCGACGAUCCCGCAGUGCGCGAUGCUCAGGUACCGCAGGCGGGACUCCAGCUUGGCGAUCUCCCGCAGGCCGAAGUCGCUGACGAAGCGGCAGUCGCUGACGCUCAGCUCCUUGAUGGAGGCGCAGUAGCAACAGAGGAUUGAGCAUCA
B2: chr2:216981417:216981418:+_ENSG00000079246_ENST00000392132|hu_hu|hu_hu_hu_mus_True|8_108 (ssRNA)
RNA: GGGAGUUCUACAGUCCGACGAUCCUGAUACUGAUCCUUGCCAGCAAGGGCAUUAUCAGUGCCAUCUGUGCCAUAGAGGACUAACGCAAUCUCAUCUUUGCUCUCCGAAAAUACCUGUCGUUGGACAAACAUGGUUAUCACUUUCAACAGAGGAUUGAGCAUCA
B3: 11971335_11976889_1083_CDS_ENSG00000103342_ENST00000563468|human|control|control (ssRNA)
RNA: GGGAGUUCUACAGUCCGACGAUCCUCUUCUUCAAUUCCUUUCAGUCUGAUUUUGAGGUUUUCACCUGGGGCUACGGUAUCAGUCUCUACAUCAUCGGAAAGUAUUCCAAGAACUUCCACGUUGUGCUUGUUUGGCAUCAUCACCAACAGAGGAUUGAGCAUCA
B4: chr1:174017691:174017692:+_ENSMUSG00000026553_ENSMUST00000135192|mus_mus|motif|central (ssRNA)
RNA: GGGAGUUCUACAGUCCGACGAUCAACUGGAUGACCCCAUUGUGUAAACUGGUCAGGAUCCAGGGUCUUUUAGGAUGAAAACGGAGGCCUUUGACCCGCGCGCUCUUCGUCUCGAAUUUGGUUAGCAUCCUUCAGGCCUCGGGCCAACAGAGGAUUGAGCAUCA
B5: chr1:39494564:39494565:+_ENSG00000168653_ENST00000372967|hu_hu|hu_hu_hu_mus_True|88_98 (ssRNA)
RNA: GGGAGUUCUACAGUCCGACGAUCAUGCAUUCGCCUCAUCGUUUUCUGCCGAAGCAAGCACUCUUCGAAGUCAUCGAACUCUAUCUUGCACUCCUUUUUCGCCCGGGUCCCACCGAUCCCGUGUGCACACUCUAUCCACUCUUUCAACAGAGGAUUGAGCAUCA
B6: 130643178_130643298_725_CDS_ENSMUSG00000030757_ENSMUST00000042470|mouse|control|control (ssRNA)
RNA: GGGAGUUCUACAGUCCGACGAUCAAUCUUCUCAGGCAGAAUGGUGAGAAACUGUUCGAUUACCAGCUGCUCGAGGAUCUGUUCCUUGGAACGCAUUUCUGGCUUCAGCCACCGACAGCAGAGUUCCCAGAGUUUACUGAAAGCCAACAGAGGAUUGAGCAUCA
B7: chr16:45382771:45382772:-_ENSMUSG00000022661_ENSMUST00000163230|mus_mus|mus_mus_mus_hu_True|1_88 (ssRNA)
RNA: GGGAGUUCUACAGUCCGACGAUCCUGGGUCAUGUUAUAAGACAAAUGGAUAGGGAGGGCAUGCUUCUCAAAAAAUGUGAGCUAUUGUCUAAGACUAACAAUAUUUAUCUAGCUAUAAAAAUAAGUUAAAUGAAUAAACAUUACCAACAGAGGAUUGAGCAUCA
B8: chr18:35731649:35731650:+_ENSMUSG00000037236_ENSMUST00000166793|perfect_dup|motif|central (ssRNA)
RNA: GGGAGUUCUACAGUCCGACGAUCCCCUACUGAGAGAUGACUGCUGGAAUGACUUGGACAUUGUAGAACUAGCUCUUGUCGGUUUUAUAGAUUAAAAAAAAAAAUUUUUUUAAAGACGGCCAAAAAGAAAGCUCAAACUAGAAACAACAGAGGAUUGAGCAUCA
B9: chr16:29586362:29586363:+_ENSMUSG00000038084_ENSMUST00000160597|mus_mus|motif|central (ssRNA)
RNA: GGGAGUUCUACAGUCCGACGAUCGCCACCUCCAACAGCAGAUCCCAGUAUGAUAUAUCGAAGUUUUAAGAGUCUUGCAGCGGACCUUGCUGGCCAAAAGUUCCUGCGGGGCUGGUAGCCAUAUUUAAUUGGAGAAAGUUUCAACAACAGAGGAUUGAGCAUCA
B10: 108360981_108361101_1165_3pUTR_ENSMUSG00000068732_ENSMUST00000090546|mouse|control|control (ssRNA)
RNA: GGGAGUUCUACAGUCCGACGAUCUUGAGAAAUCCCUCAGGCUGCCAGCAUGUGGCAAUCUGUUCUCUCUGCAGAACCACCCUCUCUCAAGUUCCCAGAUGCACAGAAAGAACACACUCCAACAGCCAAACAAUUGUUUCGCCUCAACAGAGGAUUGAGCAUCA
B11: 109530411_109530531_484_CDS_ENSG00000189046_ENST00000429722|human|control|control (ssRNA)
RNA: GGGAGUUCUACAGUCCGACGAUCAAUGUGCCGCCAGCUAGGGCCUGCUGAGUGGCCUCCAUUCCCUGGGGCCUCUCUCCUGGGCCUCUUCCUUGUGCUUUCUUUGUCUCCUCCCAACACAGCUGGCUCUUCUCCAGUUGGCUCCAACAGAGGAUUGAGCAUCA
B12: chr14:72968675:72968676:-_ENSMUSG00000033487_ENSMUST00000089017|mus_hu|FALSE|FALSE (ssRNA)
RNA: GGGAGUUCUACAGUCCGACGAUCAUAUAAGACUUCUUCACUAAAACCACUUGUACCAUAGUCAUUUCUGGCCGAUAGUCUGAAUUUACAGCCCAUUGCUGGUGAAAGUUUAGUAAUUUUAAAUUGUUUCUGUGAGCCCAUGUACAACAGAGGAUUGAGCAUCA
B13: chr4:156296975:156296976:-_ENSG00000164114_ENST00000311277|hu_hu|motif|central (ssRNA)
RNA: GGGAGUUCUACAGUCCGACGAUCUCCUGGAAAGUAGUUCUUUUGGUAACUUUUGGACUCUUUGUAUAUGCCAAAGUGGUGCGGAAAACUUCAUCAGACAUAGUGUAUUUUUUCUCGUUACCUUUAUAAAAUAGCUAAUUAUUACAACAGAGGAUUGAGCAUCA
B14: chr1:184392483:184392484:+_ENSMUSG00000026510_ENSMUST00000117245|mus_mus|FALSE|FALSE (ssRNA)
RNA: GGGAGUUCUACAGUCCGACGAUCCAUUUUUAAAACCAGCUAUGAUCUUGACAAAUACAGGUAAAUCUAUAACAAAUCUCUAAUUUCCAAGAUACAAAAAGACAAUAAAUAUAGAUUCAAAUUCAAUCUAAAAACAAGAUUCUACAACAGAGGAUUGAGCAUCA
B15: chr3:105482444:105482445:-_ENSMUSG00000027905_ENSMUST00000090680|mus_hu|FALSE|FALSE (ssRNA)
RNA: GGGAGUUCUACAGUCCGACGAUCCACAGGAAGCUUUUGUUUGGUAUUAUUUUUUGAUUUGACUGAUAGUCCAGAUACAGAAUUAUUUCUAGAGGAAGCCAUGUGGUCACCAUGAGCUUUCUGAAUUUGAAGGGUUCUCUCUAUCAACAGAGGAUUGAGCAUCA
B16: 88064226_88064346_215_3pUTR_ENSMUSG00000021257_ENSMUST00000021682|mouse|control|control (ssRNA)
RNA: GGGAGUUCUACAGUCCGACGAUCUCCACCCUUCUUCUCGCCACUGCUGCAGCAGGCCCUCACACUCUUCUUGGUCAGGCCCCCGAGGGGCCAUGGCAAAGUUACCCUCUACCUGGGGAGAUGAGCUCUUCGCCAGAAGGGCAUCAACAGAGGAUUGAGCAUCA
B17: chr6:75950928:75950929:-_ENSG00000112695_ENST00000509698|hu_hu|FALSE|FALSE (ssRNA)
RNA: GGGAGUUCUACAGUCCGACGAUCUGGAAUUUCAUCAUCCUCCUGGAACAGUUUUUGCUUCUCCGGAACUUUAUUUUUAAAAUGCCUGCGGGAAGCAGUGCUUAUCGUCCUCUGCCCAAUCUGACGAAGAGCCAGCAGAUUCCGCAACAGAGGAUUGAGCAUCA
B18: chr16:94651144:94651145:+_ENSMUSG00000040785_ENSMUST00000117648|mus_hu|mus_mus_mus_hu_True|48_108 (ssRNA)
RNA: GGGAGUUCUACAGUCCGACGAUCAUUCUCUUGGAUCAAGUGGCGAAUAACAUAGUCCACUGCUUCAUUUAGAAAAUUUCUGCUAGAAAAGCAUGUUGUAUAGUCUUCUGUGCUCAAAACUUUCCAAGAAAGCAAUUCUUUGAGCAACAGAGGAUUGAGCAUCA
B19: chr2:201943701:201943702:+_ENSG00000119013_ENST00000433898|hu_hu|motif|central (ssRNA)
RNA: GGGAGUUCUACAGUCCGACGAUCAUUGCGGCCCCAUGGAUCCCUUAGCCCUUUUGCAGCCAGCUUCUUCUGGAUAGUUUCGGAUGGUGUCCCUUCUAUCUUCCAUUGUCUAUAAUCUGGAAGUUCCAUUUUAUGAUGUCCAUGCAACAGAGGAUUGAGCAUCA
B20: chr10:60562040:60562041:-_ENSMUSG00000020097_ENSMUST00000092498|mus_mus|FALSE|FALSE (ssRNA)
RNA: GGGAGUUCUACAGUCCGACGAUCCCUGUGAUGAACCAGCUGGUAACACCUGGGGUCAGAACAGUGCUGAAGACCACUUCCUAAGGAGGGUGAGGAAGAGCCUGGUGGUCUGGCUCUCCCAGCGAGCAAUGCCCAGGCUGAAUACAACAGAGGAUUGAGCAUCA
B21: chr12:111867003:111867004:+_ENSMUSG00000018707_ENSMUST00000018851|mus_hu|FALSE|FALSE (ssRNA)
RNA: GGGAGUUCUACAGUCCGACGAUCCACCAGCAUAUUUAUCUUCAUGUAACCUUUCAGAAGCCUCUGAACAAACUCAUAGGACGCAUACUGUCGCAACCGGGCAGGGAAGCUUUUCAGCUGGUUCAGGAGGGCAUCCAAAUUUUGCAACAGAGGAUUGAGCAUCA
B22: chr14:28255117:28255118:+_ENSMUSG00000040651_ENSMUST00000022450|mus_mus|motif|central (ssRNA)
RNA: GGGAGUUCUACAGUCCGACGAUCAACAACAUCGCCUACUGCCCCAGCCUCCAAAGGAUUAGCCUGUAAGAGAUCUGCAUACCGGCAAAGAUAGAUACCCAUGGAAGGACUGCCAAGAACUGUUAUUUUGGAUUGGCCCACCUGCAACAGAGGAUUGAGCAUCA

target: T1, UNK ZnF1-3; experiment: nsRBNS (natural sequence RNA bind-n-seq); RBNS binding buffer (assumed for nsRBNS): 25 mM Tris pH 7.5, 150 mM KCl, 3 mM MgCl2, 0.01% Triton X-100, 500 ug/ml BSA, 20 U/ml SUPERase-In, 4 C; UNK is unkempt and MSI1 is Musashi-1; names of the RNAs are library labels; protein concentration not given here; high values mean tight binding

| Binder | binding signal [enrichment R] |
| --- | --- |
| B1 | 1.06 |
| B2 | 0.663 |
| B3 | 0.614 |
| B4 | 0.928 |
| B5 | 0.574 |
| B6 | 1.41 |
| B7 | 2.4 |
| B8 | 2.32 |
| B9 | 1.66 |
| B10 | 0.666 |
| B11 | 0.511 |
| B12 | 0.872 |
| B13 | 0.992 |
| B14 | 0.514 |
| B15 | 0.826 |
| B16 | 1.11 |
| B17 | 0.69 |
| B18 | 0.587 |
| B19 | 0.606 |
| B20 | 0.968 |
| B21 | 1.13 |
| B22 | 2 |
